The values that follow come from patent US20230381336A1 (SHANGHAI MIRACOGEN, published 2023).

The target of assay [1] is T1, human Claudin 18.2 (human, UniProt P56856-2 1-261).
T1 sequence (looked up): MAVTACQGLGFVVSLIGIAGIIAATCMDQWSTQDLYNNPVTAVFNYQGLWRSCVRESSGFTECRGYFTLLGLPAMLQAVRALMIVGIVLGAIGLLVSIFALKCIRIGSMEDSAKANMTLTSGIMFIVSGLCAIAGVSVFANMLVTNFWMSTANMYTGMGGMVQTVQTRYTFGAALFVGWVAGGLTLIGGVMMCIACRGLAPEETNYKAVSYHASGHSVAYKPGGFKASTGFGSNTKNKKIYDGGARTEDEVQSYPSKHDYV
Put plainly: cell-based or functional assay.

Assay [2] deals with T1, human Claudin 18.2. Nature of the assay: cell-based or functional assay. This is another data set of the same source.

B1: CM311-18D10-VH6/VL1-ADC (other)
heavy: QVQLQESGPGLVKPSETLSLTCTVSGGSISSNYAWNWIRQPPGKGLEWIGYIYYSGNTNYNPSLKSRVTISRDTSKNQFSLKLSSVTAADTAVYYCATSYYGNSFIYWGQGTLVTVSSASTKGPSVFPLAPSSKSTSGGTAALGCLVKDYFPEPVTVSWNSGALTSGVHTFPAVLQSSGLYSLSSVVTVPSSSLGTQTYICNVNHKPSNTKVDKRV[human IgG1 Fc skipped]
light: DIVMTQSPDSLAVSLGERATINCKSSQSLLNSGNQKNYLTWYQQKPGQPPKLLIYWASTRESGVPDRFSGSGSGTDFTLTISSLQAEDVAVYYCQNAYSFPWTFGQGTKVEIKRTVAAPSVFIFPPSDEQLKSGTASVVCLLNNFYPREAKVQWKVDNALQSGNSQESVTEQDSKDSTYSLSSTLTLSKADYEKHKVYACEVTHQGLSSPVTKSFNRGEC
modifications: MC-vc-PAB-MMAE coupled to free cysteine thiols of the DTT-reduced antibody; average DAR 3.8 per antibody; sites not stated
With B1, in assay [1], the “Mean IC50 of cell killing, LT-1C8 cells (KATO stable cell line, medium Claudin 18.2 expression), 96 h, CCK-8 or Presto-Blue” value stood at 0.254 µg/mL; the “Mean IC50 of cell killing, LT-M11 cells (KATO stable cell line, high Claudin 18.2 expression), 96 h, CCK-8 or Presto-Blue” value came to 0.114 µg/mL; the “Mean IC50 of cell killing, row without a cell line label printed under LT-M11 (taken as a second LT-M11 series)” value was 0.0511 µg/mL. Also, in assay [2], the “EC50 of cell killing on KATO III cells, 96 h, PrestoBlue, 4-parameter fit” value is 0.0164 µg/mL.
